The list shows a part of the results. At the low end of the ranking, values are background and their order means little.

The target of this assay is T1, GST-Rok-C97-191 (UniProt O34857).
T1 sequence: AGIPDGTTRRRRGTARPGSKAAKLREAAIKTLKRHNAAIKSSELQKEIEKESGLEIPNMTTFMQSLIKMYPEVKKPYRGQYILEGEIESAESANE
Briefly: protein binding microarray.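 Further: rank score from −0.5 (least bound) to 0.5 (best bound).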 The note with it: Rok is a gene silencer of Bacillus subtilis; high values mean tight binding; most listed sequences are background and not binding sites; double strand, one strand shown.
Sequence CAATTCAG had a binding signal of -0.0882 E-score. To ATGGTCCC belongs -0.017 E-score; to AGCATGCA, -0.131 E-score. To GGTCGAAA belongs -0.26 E-score. To CCGATAGG belongs 0.0855 E-score; to AGGCTTAA, -0.183 E-score; to CTGATGAA, -0.0901 E-score. Sequence CGATAATC gave a binding signal of 0.189 E-score. In turn, TAACTCTA yielded a binding signal of 0.205 E-score. Under AACGTTTG stands 0.0298 E-score; under TCCAACAA, -0.0242 E-score; under CCCCTTTC, -0.0869 E-score. To ACTGCATA belongs 0.22 E-score; to CAATTCGG, -0.0547 E-score. ATACTCGC showed a binding signal of 4.42e-05 E-score. Under CTACAAAC stands 0.114 E-score. Regarding TCTCTACA, the binding signal was 0.0572 E-score. To GGATTGTA belongs 0.167 E-score. To AAAACGTT belongs -0.0641 E-score; to CTAGACGC, -0.0749 E-score. To AAAAGTCC belongs 0.00591 E-score. Turning to AGGACCAA, the binding signal is -0.103 E-score. Under ACGCGTAG stands 0.102 E-score; under GGCTAACC, -0.244 E-score; under ATAAAACA, 0.138 E-score.

The sequence GAATTAGA showed a binding signal of 0.0265 E-score. Under ACTGCGAC stands -0.0467 E-score.

In turn, ACTTCGGA had a binding signal of -0.0138 E-score.

AGTCTAAG yielded a binding signal of 0.024 E-score.

AGATTGGC had a binding signal of 0.165 E-score. To TACGATCA belongs -0.136 E-score; to ATTGTGAA, 0.0643 E-score.

CCCTGGGA registered a binding signal of -0.0444 E-score. GCGTTTCA: the binding signal was -0.0989 E-score. CTTCTTAA came in with a binding signal of -0.0285 E-score. To ATGCGAGA belongs 0.00891 E-score; to GAATCCAC, -0.046 E-score; to AACTTACT, 0.236 E-score. AATCTATC gave a binding signal of 0.421 E-score. As for ACTACTTC, the binding signal stood at 0.226 E-score. To TACCTAGA belongs 0.145 E-score.

AGGGATGA: the binding signal stood at 0.0346 E-score. Under ATCGCCCA stands 0.00559 E-score. For the sequence ACGAGCCA, the binding signal was -0.162 E-score. To AACGTCAT belongs -0.044 E-score; to AAGAGAAC, 0.125 E-score; to GCCCAACA, -0.053 E-score. TACCAGAA came in with a binding signal of 0.135 E-score. To AAGATCCG belongs -0.129 E-score. The sequence GGGAGATA gave a binding signal of 0.0932 E-score. Under CAAATTGC stands -0.00386 E-score; under CAGACTGC, -0.217 E-score; under AGGATTGC, 0.0187 E-score. Take ATATCTTA: the binding signal was 0.26 E-score.

The sequence AGATCATG gave a binding signal of 0.0411 E-score. To AAGGACAC belongs -0.233 E-score. TTACGGAA yielded a binding signal of 0.14 E-score. The sequence CTACTACA gave a binding signal of 0.366 E-score. CGCTGCCC returned a binding signal of -0.208 E-score. GGATTACA had a binding signal of 0.142 E-score. In turn, GAGATAAA came in with a binding signal of 0.0507 E-score. For CTCGAGCC, the binding signal was -0.244 E-score. To TACACATA belongs 0.203 E-score; to ACCCGGAT, -0.0978 E-score. Under CGATGGAC stands -0.0374 E-score; under GGATCAGA, -0.131 E-score; under AATTGGGT, 0.148 E-score.

Turning to GCATATCC, the binding signal is -0.0417 E-score. ATGCGCGC had a binding signal of 0.0372 E-score. Take ACCCAAGC: the binding signal is -0.11 E-score. CACCCAAC returned a binding signal of 0.035 E-score. For the sequence CCCAATCC, the binding signal was -0.254 E-score. Under CACAACGA stands 0.0338 E-score.

Turning to AGACAGTC, the binding signal was -0.217 E-score. ATTAGGCG returned a binding signal of 0.0159 E-score.

On to ATTAAACC, for which the binding signal was -0.0504 E-score. To CAGCTGGC belongs -0.142 E-score; to CTACAGTC, 0.164 E-score. Under ACTAGCCA stands 0.0611 E-score; under CCATGGAG, 0.0212 E-score. Under ACGGACCT stands -0.317 E-score; under ATTTAGCA, 0.318 E-score; under AGTTAACT, 0.243 E-score. As for ACGTGAAT, the binding signal stood at 0.101 E-score. Sequence GCGCTCAC returned a binding signal of -0.194 E-score. Under CCAGTGAA stands -0.048 E-score; under CCTTTGTA, 0.0944 E-score.

Take GGTTCGAA: the binding signal is -0.0927 E-score.

As to ACCTACAT, the binding signal worked out at 0.227 E-score. Turning to ATGCACGG, the binding signal was 0.0745 E-score. Under AGTTACTG stands 0.25 E-score; under CGATGCCA, -0.252 E-score; under ATGGGCGA, -0.197 E-score. GCGGCGGA showed a binding signal of -0.271 E-score. On to CAGCCCCC, for which the binding signal was -0.441 E-score.

Sequence CATCTGCG yielded a binding signal of -0.166 E-score. On to AAGACTCT, for which the binding signal is -0.119 E-score. To TTGAGAAA belongs 0.0442 E-score.

For CACGCGGA, the binding signal was -0.00929 E-score.

The sequence CACTCGTA came in with a binding signal of 0.187 E-score. CGCCTTCA gave a binding signal of -0.0838 E-score.

Sequence CCAGCGGA had a binding signal of -0.168 E-score. As to TATGGCCA, the binding signal amounted to 0.0565 E-score. Under CGGGCGCA stands -0.153 E-score. Turning to AAAGGCCA, the binding signal is -0.131 E-score. For CATTTGTA, the binding signal amounted to 0.276 E-score.

Turning to GTTAGAGA, the binding signal is 0.00481 E-score. ACAACATG returned a binding signal of 0.0419 E-score. In the case of ACATGGGC, the binding signal was -0.0477 E-score. To AAGAAACG belongs -0.0354 E-score.

For the sequence ACTCAAGC, the binding signal was -0.0317 E-score. AATAGTGA: the binding signal is 0.219 E-score. As for ATGTGCCA, the binding signal was -0.163 E-score. For AACCCTGT, the binding signal was -0.00908 E-score. In turn, ACACGGCA yielded a binding signal of 0.0513 E-score.

For the sequence ATGTTCCC, the binding signal came to 0.0954 E-score. In the case of ATCGGAAC, the binding signal was -0.0269 E-score. Under CCTTACGC stands -0.0795 E-score; under AAAGCCGT, -0.127 E-score.

On to CGAAACCA, for which the binding signal is -0.131 E-score. The sequence CGCTGAAG showed a binding signal of -0.13 E-score. The sequence GGCGTGTA had a binding signal of 0.0251 E-score. To AAAAATCG belongs 0.0467 E-score; to CTACTCTA, 0.207 E-score. Under CACACATA stands 0.0617 E-score. Under CACTGAGC stands -0.224 E-score. In turn, CTCGATGA had a binding signal of 0.0233 E-score. To AAAAACCA belongs 0.0856 E-score. Under CAGCCACA stands -0.41 E-score. To ATAGCGGC belongs 0.0742 E-score; to CTCGCTTA, -0.162 E-score; to ATAATCTC, 0.178 E-score. AATCTAGT showed a binding signal of 0.282 E-score. For AGGCCCTG, the binding signal is -0.16 E-score. Sequence AGCTTCGA registered a binding signal of -0.141 E-score. The sequence ACGACCCG yielded a binding signal of -0.29 E-score. To CAACGTCC belongs -0.328 E-score; to CCTGTGCA, -0.0377 E-score; to AGGCACCA, -0.152 E-score. Under CTAAGATA stands 0.213 E-score. GTCACCAA had a binding signal of -0.196 E-score. In turn, AATACCAC showed a binding signal of 0.241 E-score.

Sequence CGGAAACA returned a binding signal of -0.0708 E-score.

As for GCACGGGA, the binding signal is -0.193 E-score. In the case of ATCTACAC, the binding signal came to 0.273 E-score. Under CGTAAAAC stands 0.0179 E-score; under ACGGTCTA, -0.122 E-score; under AGTAACGC, 0.00371 E-score.

As to AGGGGTCG, the binding signal is -0.353 E-score. GAAGGTTA displayed a binding signal of 0.0547 E-score. To CAAGCTGA belongs -0.274 E-score.

Take CGCTAGGA: the binding signal is -0.0406 E-score.

In turn, GAGTATCA yielded a binding signal of -0.0174 E-score. Consider ATGCTAGG, for which the binding signal was 0.062 E-score. Sequence AGTGTTAT yielded a binding signal of 0.19 E-score. To TCCACAAA belongs 0.00724 E-score; to GGGGGAGA, -0.156 E-score. To AGCAAGTC belongs -0.196 E-score; to GAGGAGAC, -0.258 E-score; to ACGTAACC, -0.138 E-score. Consider CGAGATCC, for which the binding signal came to 0.128 E-score.

With AAGCGTTC, the binding signal was -0.199 E-score. Under CCGGAAAA stands 0.0361 E-score; under GGGCTAAC, -0.0664 E-score; under GCCTTCGA, -0.156 E-score.

CGACTTGA: the binding signal came to 0.0696 E-score. Consider GAGTGAAC, for which the binding signal is 0.0307 E-score. For the sequence GGCGCGCC, the binding signal is -0.422 E-score. Under AATGATGG stands 0.013 E-score; under ATATCCAA, 0.249 E-score; under ACAGAATA, 0.156 E-score. To AGAGTGCG belongs -0.139 E-score.
